Measured values published in the supplement of paper PMC3334620.
The full ranking holds about 33,000 sequences; the median of “E-score (-0.5 to 0.5)” is about -0.04, and the highest 2% start at about 0.36. The list shows a part of the results.

Target: T1, Hmlalpha2 (UniProt P0CY09)
T1 sequence: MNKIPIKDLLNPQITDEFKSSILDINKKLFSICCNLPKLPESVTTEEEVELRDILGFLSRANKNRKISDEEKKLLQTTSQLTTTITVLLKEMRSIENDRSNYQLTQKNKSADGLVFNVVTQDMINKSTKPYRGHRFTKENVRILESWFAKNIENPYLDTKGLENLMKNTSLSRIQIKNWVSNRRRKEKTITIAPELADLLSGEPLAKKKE
Assay: PBM E-score (8-mer binding enrichment) (E-score (-0.5 to 0.5)); higher = stronger / more preferred TF binding; most listed sequences are background and not binding sites
Settings: protein concentration: 200 nM; construct: GST-full length
Protocol: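 Universal 'all 10-mer' protein binding microarrays (Agilent AMADID 015681) probed with GST-tagged S. cerevisiae TFs (full-length or DBD) made by in vitro transcription/translation (PURExpress), about 100-200 nM. Bound TF was detected with fluorescent anti-GST. Each ungapped 8-mer (which stands for itself and its reverse complement) is scored by the PBM enrichment score (E-score), a modified Wilcoxon-Mann-Whitney statistic from -0.5 to +0.5, computed with the Universal PBM Analysis Suite. Scale: above 0.35 generally sequence-specific binding.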

Sequence	PBM E-score
TCCGACAA	0.0659
TCAAAACA	0.308
CTTTTCGC	0.111
ATGCTCTA	-0.011
AATTTGTC	0.0589
CGGGTGAG	-0.247
TATAAGAA	0.0871
CGAGAACA	0.0369
GATATGCC	-0.287
CCGCACCA	-0.158
GGAAGCCA	-0.349
CCGTGGTC	-0.243
CAGATAGA	-0.0232
CCGAGCAA	-0.158
CGTAGTGC	-0.15
CCGAAACG	-0.082
CCAAGAGC	-0.225
ATAGGCTC	-0.186
CCGGGAGA	-0.167
CCCCAGTA	-0.182
CAATTTAC	0.286
GTCTTAAC	0.338
AGTGATCC	-0.0197
CGAAGAAA	-0.0904
TAAACTAA	0.246

Sequence	PBM E-score
GCCCACGC	-0.193
ACGGGTGA	-0.0736
CGTCTTCA	-0.0198
CATAATTC	0.0206
AAATGTAC	0.236
ACGAGTCA	-0.0236
ACACTATC	-0.0132
GACGACTA	-0.161
TCACACCA	-0.0124
CAGAATGC	-0.193
CCTCTCCA	-0.196
AGCCGGTC	-0.192
GATCCACA	0.0446
TGCCGGAA	0.0244
AAATTCCG	-0.0172
GCTGTTTA	0.173
GCCCATTA	0.0322
ATCTCGGC	-0.264
GACAAACC	-0.0548
CAAAAAAC	0.217
ACAATAAG	0.112
CCAGAGAA	-0.174
GCAACTGC	0.0943
ACTTGGGG	-0.282
AATGCCCA	0.0243

Sequence	PBM E-score
CGTTCCAG	-0.188
TACAGAGA	0.0691
GGGAAGCA	-0.183
ACACTGGC	0.115
CGCCAGCC	-0.237
CGGCGGAC	-0.22
ACGCCCCA	-0.0187
CTTCTTGC	-0.106
GTGCTTCA	0.0527
CGCGGCCG	-0.167
CCTTCTAC	0.136
AAGACAAT	0.0291
AATGTACG	0.108
AGTATAGA	0.00337
ACAGTTCC	-0.15
ACTACTAC	0.147
ATCGTCTC	-0.193
AGCTCGTA	0.0514
TGCATGCA	0.229
CTTGTACC	0.0814
GCTTTCCC	-0.264
TACAGCGA	0.00752
CGGGTGTA	0.174
ATTCAATG	0.0714
AAATGGCT	-0.121

Sequence	PBM E-score
AAGGTTAC	-0.0396
GCCCGGCA	-0.308
ATGGGAGG	-0.294
CTCAACGA	0.072
ATGACGCA	0.155
CGTGGCAC	0.0886
GAATCCTC	-0.386
CCCAGCTC	-0.345
CAGAGTCC	-0.111
CCCTAGCC	-0.371
ACGTACAA	0.273
CTTTAGGC	-0.167
AAGGTCGG	-0.193
AGCTTCTA	-0.132
AATAAGTG	-0.00657
CCCACTAA	-0.111
ACACATCT	0.288
ACGGGTAC	-0.0533
CTATTACC	-0.0498
AAGTAGAG	0.018
GGGCTGAC	-0.0889
TAAAATGA	0.155
CCAGTGGC	-0.197
ACCGACTC	-0.223
CGTTCGAC	-0.0737

Sequence	PBM E-score
TACCAGAA	-0.0654
AGAAATGA	0.158
ATGACCCC	-0.209
CGAACATA	0.231
CTATGTGA	0.172
AGGTTAGC	-0.132
AGAACACA	0.268
CAGTCAAG	-0.0797
TAGACCAA	-0.0507
GCACCTAC	-0.221
GGATCCCA	-0.189
TCAATGAA	0.0206
AGACATAG	0.0797
ATTGCGCC	-0.128
AGCGGCTA	-0.0688
CCGCTGAG	-0.242
GGGGGGAC	-0.232
ACTTGGAC	0.0824
ACCTTCTC	-0.141
ACCTGCCG	-0.266
CAGTGATG	-0.04
AAAAAATC	0.0267
GTCAGGCA	-0.0798
CAGTCGGC	-0.231
ACAAAGAG	-0.0164

Sequence	PBM E-score
ATCTACGG	0.0209
CGGATACG	-0.0083
CCTCGTAG	0.039
GTACTTGA	0.208
CGCGGCAA	-0.0248
ACTACATG	0.43
ATTTCATA	0.113
AGTTCGTG	0.149
CGTTGCTA	0.134
CGTGTTGA	0.446
CTTAACGA	0.0642
AGCTATCG	-0.139
AGCTCACT	-0.0714
CCAGCCAA	-0.128
AGGTGCCG	-0.232
GCCGAAGC	-0.279
CCGTAGAG	-0.221
ATGCCCAG	-0.0963
CAGTAAGC	-0.0712
CGCTAAAC	0.0834
CGGGCATC	-0.287
CGGAAGTA	-0.0569
GATAATAA	-0.0459
CCCCACCG	-0.335
GATATTGC	-0.12

Sequence	PBM E-score
AATGAGCA	0.00557
AGCCCCAG	-0.32
CGTTCTTC	-0.049
GCGAAGAC	-0.0503
GAAAACCC	-0.0923
GTTCACCA	0.0144
AATTCATC	-0.151
ACGGGAGA	-0.138
ATTCAAAC	0.2
CCCAACCA	0.0379
ACAGGTTA	0.19
AGTAGTCG	0.0387
ATGTCCAA	0.116
TATGCTCA	0.0888
TGCGTAAA	0.441
CCTTGCAA	-0.176
GCTGTGAA	0.0585
AGTCCGAA	0.0171
ATAGTTGG	-0.128
GTGACGAA	0.00439
ACCGGGAC	-0.0952
CCCAAGGG	-0.389
